# Some of the results follow. Sequences were assembled here from the parent chain. Values near 0.05 are background.
# B1: TEV protease; numbered along this chain (parent)
# chain: MGESLFKGPRDYNPISSSICHLTNESDGHTTSLYGIGFGPFIITNKHLFRRNNGTLVVQSLHGVFKVKDTTTLQQHLVDGRDMIIIRMPKDFPPFPQKLKFREPQREERICLVTTNFQTKSMSSMVSDTSCTFPSGDGIFWKHWIQTKDGQCGSPLVSTRDGFIVGIHSASNFTNTNNYFTSVPKNFMELLTNQEAQQWVSGWRLNADSVLWGGHKVFMVKPEEPFQPVKEATQL
# Variants of: B1
# Assay: raw area under fraction-flipped curve 0-4 h after induction (AUC4h, not background-subtracted), DNA-recorder readout of cleavage of the substrate (dimensionless); higher = more cleavage of the substrate by the protease variant
# Details: temperature: 34 °C; time window: 0-4 h after rhamnose induction
# Experimental: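 In vivo DNA recorder in E. coli TOP10(DE3) ΔrhaA at 34 °C. Each TEVp single-site mutant (parent TEVp 0) is paired with a single-site variant of the 7-mer TEVs (canonical ENLYFQ|S). The substrate sits between flexible linkers in a Bxb1-sfGFP-TEVs-SsrA fusion, so cleavage stabilises Bxb1 and speeds flipping of a recombination array, read by NGS. The value is the raw area under the fraction-flipped curve over 0-4 h after rhamnose induction (AUC4h), with ≥20 reads per time point. It is not background-subtracted; inactive controls average about 0.047.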
# 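Also: Bxb1 expression induced with 0.2% (w/v) L-rhamnose at OD600 near 0.5, cultures sampled hourly, flipped fraction per protease–substrate barcode pair counted by paired-end Illumina sequencing.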
Variant,area with substrate DNLYFQS,area with substrate GNLYFQS,area with substrate KNLYFQS,area with substrate MNLYFQS,area with substrate RNLYFQS,area with substrate SNLYFQS,area with substrate QNLYFQS,area with substrate TNLYFQS,area with substrate YNLYFQS,area with substrate FNLYFQS
MGESLFKGPRDYNPISSSICHLTNESDGHTTSLYGIGFGPFIITNKHLFRRNNGTLVVQSLHGVFKVKDTTTLQQHLVDGRDMIIIRMPKDFPPFPQKLKFREPQREERICLVTTNFQTKSMSSMVSDTSCTFPSGDGIFWKHWIQTKDGQCGSPLVSTRDGFIVGIHSASNFTNTNNYFDSVPKNFMELLTNQEAQQWVSGWRLNADSVLWGGHKVFMVKPEEPFQPVKEATQL [T181D],0.0693,0.0586,0.0669,0.0499,0.0322,0.0429,,,,
MGESLFKGPRDYNPISSSICHLTNESDGHTTSLYGIGFGPFIITNKHLFRRNNGTLVVQSLHGVFKVKDTTTLQQHLVDGRDMIIIRMPKDFPPFPQKLKFREPQREERICLVTTNFQTKSMSSMVSDTSCTFPSGDGIFWKHWIQTKDGQCGSPLVSTRDGFIVGIHSASNFTNTNNYFNSVPKNFMELLTNQEAQQWVSGWRLNADSVLWGGHKVFMVKPEEPFQPVKEATQL [T181N],0.0746,,0.0617,,,,0.0475,0.0699,0.0771,
MGESLFKGPRDYNPISSSICHLTNESDGHTTSLYGIGFGPFIITNKHLFRRNNGTLVVQSLHGVFKVKDTTTLQQHLVDGRDMIIIRMPKDFPPFPQKLKFREPQREERICLVTTNFQTKSMSSMVSDTSCTFPSGDGIFWKHWIQTKDGQCGSPLVSTRDGFIVGIHSASNFTNTNNYFQSVPKNFMELLTNQEAQQWVSGWRLNADSVLWGGHKVFMVKPEEPFQPVKEATQL [T181Q],0.0572,0.0557,,,0.0592,,,0.0654,0.0395,0.0612
MGESLFKGPRDYNPISSSICHLTNESDGHTTSLYGIGFGPFIITNKHLFRRNNGTLVVQSLHGVFKVKDTTTLQQHLVDGRDMIIIRMPKDFPPFPQKLKFREPQREERICLVTTNFQTKSMSSMVSDTSCTFPSGDGIFWKHWIQTKDGQCGSPLVSTRDGFIVGIHSASNFTNTNNYFWSVPKNFMELLTNQEAQQWVSGWRLNADSVLWGGHKVFMVKPEEPFQPVKEATQL [T181W],0.0713,,0.0644,0.0874,0.079,0.0649,,0.0604,,
MGESLFKGPRDYNPISSSICHLTNESDGHTTSLYGIGFGPFIITNKHLFRRNNGTLVVQSLHGVFKVKDTTTLQQHLVDGRDMIIIRMPKDFPPFPQKLKFREPQREERICLVTTNFQTKSMSSMVSDTSCTFPSGDGIFWKHWIQTKDGQCGSPLVSTRDGFIVGIHSASNFTNTNNYFTDVPKNFMELLTNQEAQQWVSGWRLNADSVLWGGHKVFMVKPEEPFQPVKEATQL [S182D],0.0752,0.0681,,,,,,0.0591,,
MGESLFKGPRDYNPISSSICHLTNESDGHTTSLYGIGFGPFIITNKHLFRRNNGTLVVQSLHGVFKVKDTTTLQQHLVDGRDMIIIRMPKDFPPFPQKLKFREPQREERICLVTTNFQTKSMSSMVSDTSCTFPSGDGIFWKHWIQTKDGQCGSPLVSTRDGFIVGIHSASNFTNTNNYFTSVPDNFMELLTNQEAQQWVSGWRLNADSVLWGGHKVFMVKPEEPFQPVKEATQL [K185D],0.0747,,0.0664,0.0619,,,,0.0551,,
MGESLFKGPRDYNPISSSICHLTNESDGHTTSLYGIGFGPFIITNKHLFRRNNGTLVVQSLHGVFKVKDTTTLQQHLVDGRDMIIIRMPKDFPPFPQKLKFREPQREERICLVTTNFQTKSMSSMVSDTSCTFPSGDGIFWKHWIQTKDGQCGSPLVSTRDGFIVGIHSASNFTNTNNYFTSVPRNFMELLTNQEAQQWVSGWRLNADSVLWGGHKVFMVKPEEPFQPVKEATQL [K185R],0.0858,,0.0654,,,0.053,,,0.0676,
MGESLFKGPRDYNPISSSICHLTNESDGHTTSLYGIGFGPFIITNKHLFRRNNGTLVVQSLHGVFKVKDTTTLQQHLVDGRDMIIIRMPKDFPPFPQKLKFREPQREERICLVTTNFQTKSMSSMVSDTSCTFPSGDGIFWKHWIQTKDGQCGSPLVSTRDGFIVGIHSASNFTNTNNYFTSVPKNFFELLTNQEAQQWVSGWRLNADSVLWGGHKVFMVKPEEPFQPVKEATQL [M188F],0.0636,,0.0821,0.0579,,,,,,
MGESLFKGPRDYNPISSSICHLTNESDGHTTSLYGIGFGPFIITNKHLFRRNNGTLVVQSLHGVFKVKDTTTLQQHLVDGRDMIIIRMPKDFPPFPQKLKFREPQREERICLVTTNFQTKSMSSMVSDTSCTFPSGDGIFWKHWIQTKDGQCGSPLVSTRDGFIVGIHSASNFTNTNNYFTSVPKNFGELLTNQEAQQWVSGWRLNADSVLWGGHKVFMVKPEEPFQPVKEATQL [M188G],0.0773,0.0813,0.0769,0.0783,,0.0721,,0.106,,
MGESLFKGPRDYNPISSSICHLTNESDGHTTSLYGIGFGPFIITNKHLFRRNNGTLVVQSLHGVFKVKDTTTLQQHLVDGRDMIIIRMPKDFPPFPQKLKFREPQREERICLVTTNFQTKSMSSMVSDTSCTFPSGDGIFWKHWIQTKDGQCGSPLVSTRDGFIVGIHSASNFTNTNNYFTSVPKNFKELLTNQEAQQWVSGWRLNADSVLWGGHKVFMVKPEEPFQPVKEATQL [M188K],0.0601,0.0712,0.0625,0.0493,,,,0.0709,,

# Same assay, conditions: temperature: 34 °C; time window: 0-4 h after rhamnose induction
Variant,area with substrate INLYFQS,area with substrate PNLYFQS,area with substrate HNLYFQS,area with substrate VNLYFQS,area with substrate WNLYFQS,area with substrate LNLYFQS,area with substrate NNLYFQS
MGESLFKGPRDYNPISSSICHLTNESDGHTTSLYGIGFGPFIITNKHLFRRNNGTLVVQSLHGVFKVKDTTTLQQHLVDGRDMIIIRMPKDFPPFPQKLKFREPQREERICLVTTNFQTKSMSSMVSDTSCTFPSGDGIFWKHWIQTKDGQCGSPLVSTRDGFIVGIHSASNFTNTNNYFQSVPKNFMELLTNQEAQQWVSGWRLNADSVLWGGHKVFMVKPEEPFQPVKEATQL [T181Q],0.0667,0.0545,,,,,
MGESLFKGPRDYNPISSSICHLTNESDGHTTSLYGIGFGPFIITNKHLFRRNNGTLVVQSLHGVFKVKDTTTLQQHLVDGRDMIIIRMPKDFPPFPQKLKFREPQREERICLVTTNFQTKSMSSMVSDTSCTFPSGDGIFWKHWIQTKDGQCGSPLVSTRDGFIVGIHSASNFTNTNNYFWSVPKNFMELLTNQEAQQWVSGWRLNADSVLWGGHKVFMVKPEEPFQPVKEATQL [T181W],,0.0622,0.0511,0.0737,0.0364,,
MGESLFKGPRDYNPISSSICHLTNESDGHTTSLYGIGFGPFIITNKHLFRRNNGTLVVQSLHGVFKVKDTTTLQQHLVDGRDMIIIRMPKDFPPFPQKLKFREPQREERICLVTTNFQTKSMSSMVSDTSCTFPSGDGIFWKHWIQTKDGQCGSPLVSTRDGFIVGIHSASNFTNTNNYFTDVPKNFMELLTNQEAQQWVSGWRLNADSVLWGGHKVFMVKPEEPFQPVKEATQL [S182D],,,0.0572,,0.0594,0.0479,
MGESLFKGPRDYNPISSSICHLTNESDGHTTSLYGIGFGPFIITNKHLFRRNNGTLVVQSLHGVFKVKDTTTLQQHLVDGRDMIIIRMPKDFPPFPQKLKFREPQREERICLVTTNFQTKSMSSMVSDTSCTFPSGDGIFWKHWIQTKDGQCGSPLVSTRDGFIVGIHSASNFTNTNNYFTSVPDNFMELLTNQEAQQWVSGWRLNADSVLWGGHKVFMVKPEEPFQPVKEATQL [K185D],,0.0674,0.0701,,,0.0621,0.0536
MGESLFKGPRDYNPISSSICHLTNESDGHTTSLYGIGFGPFIITNKHLFRRNNGTLVVQSLHGVFKVKDTTTLQQHLVDGRDMIIIRMPKDFPPFPQKLKFREPQREERICLVTTNFQTKSMSSMVSDTSCTFPSGDGIFWKHWIQTKDGQCGSPLVSTRDGFIVGIHSASNFTNTNNYFTSVPRNFMELLTNQEAQQWVSGWRLNADSVLWGGHKVFMVKPEEPFQPVKEATQL [K185R],,0.0647,0.0705,,0.0687,0.0772,0.0814
MGESLFKGPRDYNPISSSICHLTNESDGHTTSLYGIGFGPFIITNKHLFRRNNGTLVVQSLHGVFKVKDTTTLQQHLVDGRDMIIIRMPKDFPPFPQKLKFREPQREERICLVTTNFQTKSMSSMVSDTSCTFPSGDGIFWKHWIQTKDGQCGSPLVSTRDGFIVGIHSASNFTNTNNYFTSVPKNFFELLTNQEAQQWVSGWRLNADSVLWGGHKVFMVKPEEPFQPVKEATQL [M188F],0.0619,,0.051,,0.0754,,
MGESLFKGPRDYNPISSSICHLTNESDGHTTSLYGIGFGPFIITNKHLFRRNNGTLVVQSLHGVFKVKDTTTLQQHLVDGRDMIIIRMPKDFPPFPQKLKFREPQREERICLVTTNFQTKSMSSMVSDTSCTFPSGDGIFWKHWIQTKDGQCGSPLVSTRDGFIVGIHSASNFTNTNNYFTSVPKNFGELLTNQEAQQWVSGWRLNADSVLWGGHKVFMVKPEEPFQPVKEATQL [M188G],0.0564,,,,0.0568,0.0614,
MGESLFKGPRDYNPISSSICHLTNESDGHTTSLYGIGFGPFIITNKHLFRRNNGTLVVQSLHGVFKVKDTTTLQQHLVDGRDMIIIRMPKDFPPFPQKLKFREPQREERICLVTTNFQTKSMSSMVSDTSCTFPSGDGIFWKHWIQTKDGQCGSPLVSTRDGFIVGIHSASNFTNTNNYFTSVPKNFKELLTNQEAQQWVSGWRLNADSVLWGGHKVFMVKPEEPFQPVKEATQL [M188K],0.0546,0.0693,0.0623,0.0652,,0.0696,0.0811

# From the supplement of paper PMC12217912
